From PubChem BioAssay AID504374 (National Center for Advancing Translational Sciences (NCATS), 2011)
Among all 1,500 compounds or so, about 100 (6.7%) were called active. About 7% were inconclusive and are not listed. Calls follow the shape of the dose curve; as a rule, active = well fitted inhibition curve with a large enough effect; inconclusive = small, poorly fitted or top-dose-only effect, or effect the other way; inactive = flat fitted curve, though single readings scatter. This is one part of the list.

These compounds were tested against Runt-related transcription factor 1 (Homo sapiens) + Core-binding factor subunit beta (Homo sapiens) (UniProt Q01196+Q13951) (assay: qHTS Assay for Compounds Blocking the Interaction Between CBF-beta and RUNX1 for the Treatment of Acute Myeloid Leukemia: Hit Validation). Details: AlphaScreen CBFb-His/RUNX1-biotin binding; series mostly up to 59.8 µM; activity, negative = inhibition: at the top concentration.
Chain of UniProt Q01196 (Q01196 whole entry, looked up): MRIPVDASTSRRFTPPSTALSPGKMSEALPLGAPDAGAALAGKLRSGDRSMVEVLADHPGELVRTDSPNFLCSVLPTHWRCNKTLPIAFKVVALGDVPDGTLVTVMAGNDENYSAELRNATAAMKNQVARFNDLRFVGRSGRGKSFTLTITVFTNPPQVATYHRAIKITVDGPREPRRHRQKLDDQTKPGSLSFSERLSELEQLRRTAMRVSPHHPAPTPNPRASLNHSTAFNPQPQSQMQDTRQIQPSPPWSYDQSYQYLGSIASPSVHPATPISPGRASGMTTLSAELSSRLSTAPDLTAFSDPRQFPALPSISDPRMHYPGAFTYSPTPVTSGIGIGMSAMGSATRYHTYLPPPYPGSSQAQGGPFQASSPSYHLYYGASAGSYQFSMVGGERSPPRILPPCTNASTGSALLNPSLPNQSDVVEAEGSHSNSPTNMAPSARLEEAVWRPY
Chain of UniProt Q01196 (Q13951 whole entry, looked up): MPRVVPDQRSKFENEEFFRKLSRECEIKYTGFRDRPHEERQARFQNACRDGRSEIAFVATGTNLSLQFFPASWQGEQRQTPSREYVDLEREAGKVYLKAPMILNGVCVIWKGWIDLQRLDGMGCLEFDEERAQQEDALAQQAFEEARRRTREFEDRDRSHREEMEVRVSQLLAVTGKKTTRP
Text: NIH Chemical Genomics Center [NCGC]
NIH Molecular Libraries Probe Production centers Network [MLPCN]
Assay Submitter (PI): Paul Liu
Core Binding Factor (CBF) abnormalities are associated with 20-25% of all acute myeloid leukemias (AML), of which 5-10% are further sub classified as acute myelomonocytic leukemia with eosinophilia, also known as M4Eo in the FAB classification scheme. This subtype of leukemia is usually associated with chromosome 16 inversion (p13:q22). Chromosome 16 inversion results in formation of the fusion oncogene CBFB-MYH11, which encodes the fusion protein CBF-beta-SMMHC.
It has been hypothesized that the interference of CBF-beta and RUNX1 binding could have therapeutic implications for patients with CBF mediated leukemias. We developed a CBF-beta and RUNX1 binding assay in AlphaScreenTM format and optimized it for high throughput screening to search for inhibitors. The goal of this project is to screen MLPCN's compound collection (MLSMR) for identifying the inhibitors of the interaction between CBF-beta and RUNX1 proteins as research probes. If these probes work well in the animal models, the ultimate goal of this project is to development a new drug treatment for this disease.
This assay can not be used to assess how apparent inhibitors interfere with protein binding, and whether inhibitors specifically bind to either protein. Disruption of this protein-protein interaction, through any mechanism, is the intended target activity.
The present data set was run to confirm the activity of hits from the primary screen.
NCGC Assay Protocol Summary:
Step, Parameter, Description
(1) Reagent, 3 uL CBFb-His/RUNX1-biotin mix incubated together for 20 minutes at room temperature (30 nM each)
(2) Compound or control, 23 nL compound stock solution
(3) Incubation, 15 minutes at Room temperature
(4) Reagent, 1 uL 50 ng each of beads (Nickel beads and streptavidin beads)
(5) Incubation, 90 minutes at Room temperature
(6) Detection, Excitation=365 nm Emission=440 nm, Envision reader in AlphaScreenTM mode
Keywords: MLSMR, MLPCN, NIH Roadmap, qHTS, NCGC, Core binding factor, CBF, CBF-beta, Acute myeloid leukemia
% is scaled to controls: 0 for no effect and ±100 for the full control effect; potency is read from the fitted curve at half-maximal effect.
Also: nearly all actives have a fitted effect of over 60% in size.

activity, negative = inhibition, inactive:
COc1ccc2[nH]c(=O)c(CN(C(=O)C3CCCO3)c3ccc(C)c(C)c3)cc2c1 (stereo unspecified) -5.53%
COc1cc(C2C(C#N)=C(N)OC3=C2C(=O)CC(C)(C)C3)ccc1OCCN1CCOCC1 (stereo unspecified) -3.79%
Cc1ccc(-c2cc(-c3c(C)nn(C)c(=O)c3N)[nH]n2)cc1 -3.07%
O=S(=O)(c1cccc(F)c1)N1CCc2sccc2C1c1ccc(OC(F)(F)F)cc1 (stereo unspecified) 3.84%
O=C(Oc1cc(=O)oc2c1c(=O)n1c3c(cccc23)CC1)c1ccccc1 -1.83%
COc1ccc(/C=N/NC(=O)c2cnccn2)c(OC)c1OC -4.33%
CC1(C)C([N+](=O)[O-])C(c2ccc(F)cc2)NC(c2ccc(F)cc2)C1[N+](=O)[O-] (stereo unspecified) -4.27%
Cc1cc(C)c(NC(N)=S)c(C)c1 -19.2%
Cc1[nH]ncc1-c1ccccc1Cl 2.43%
O=C(Cc1ccccc1)Nc1c(Cl)ccc2nsnc12 -0.353%
O=S(=O)(Nc1nc(SCc2ccc(Cl)cc2)n[nH]1)c1ccc(F)cc1 -18.6%
COc1ccccc1/C=C/C=N/NC(=O)CCn1cnc2ccccc21 -4.8%
S=c1[nH]nc(-c2cccs2)n1C1CCCCC1 6.08%
CN(C)CCCNc1cc(C(C)(C)C)nc2c(-c3ccc(Cl)cc3)cnn12 -2.95%
NC(=O)N/N=C/CCc1ccccc1 4.89%
CCOC(=O)N1CCc2c(sc(NC(=O)CN(CC)CC)c2C#N)C1 1.73%
CN(C(=O)Nc1ccccc1)n1cnc2ccccc2c1=O 1.42%
COc1ccc(/C(C)=N/NC(=O)CNC(=O)Cc2ccccc2)c(OC)c1 -10.6%
COc1c(/C=N/NC(=O)c2ccncc2)c(CCN(C)C(C)=O)cc2c1OCO2 -1.26%
CN1C(=O)N(c2nnc(C(C)(C)C)s2)C(=O)C1c1ccccc1 (stereo unspecified) 2.28%
CN1C(=CC=C2C=C(I)C(=O)C(I)=C2)C(C)(C)c2ccccc21 0.353%
Cc1ccc(S(=O)(=O)NNC(=S)NC(C)(C)C)cc1 1.87%
Brc1ccc2oc(-c3ccn[nH]3)cc2c1 4.3%
Cc1cc(=O)[nH]c2c1c(C)nn2C(C)(C)C -0.932%
Nc1cc(N)nc(CS)n1 0.962%
CC(=O)/C(N=Nc1ccc(-n2ccc(C(F)(F)F)n2)cc1)=C(\C)O -3.71%
CCCCC1C2C(=O)N(c3ccccc3)C(=O)C2ON1c1ccccc1 (stereo unspecified) -4.55%
Cc1c(-c2ccc(Cl)cc2)[n+](=O)c2c(n1[O-])CCCC2 3.49%
O=C(O)c1nccnc1C(=O)Nc1ccc(Oc2c(Cl)cccc2Cl)nc1 0.138%
Nc1nccc(/C=C/c2c(Cl)cccc2Cl)n1 -9.01%
COc1ccc(CCNC(=O)C(=O)NCC2CCNCC2)cc1OC -3.78%
N#Cc1cnn(-c2ccccc2)c1NC(=O)CN1CCOCC1 0.441%
C=CCN=C1S/C(=C/c2ccc([N+](=O)[O-])cc2)C(=O)N1CC=C -3.34%
Cc1onc(-c2ccccc2)c1C(=O)c1ccccc1 -4.83%
COc1ccc(/C=N/NC(=O)c2ccco2)cc1OCc1ccccc1 -0.527%
CC1CCN(C2CCN(C(=O)c3ccccc3F)CC2)CC1 2.74%
COc1ccccc1NC(=O)OCC#CCOC(=O)Nc1ccccc1OC 9.79%
CCOC(=O)CNC(=O)c1cccnc1Oc1ccc(Cl)cc1 -8.52%
O=C(Nc1ccccc1F)Oc1cccc(OC(=O)Nc2ccccc2F)c1 -1.24%
O=C(O)c1nccnc1C(=O)Nc1ccc(S(=O)(=O)N2CCOCC2)cc1 -6.89%
O=C(Nc1ccccc1)Nc1ccc2ccccc2c1 8.42%
Cc1ccccc1OCC(=O)Nc1nnc(C2CCCCC2)s1 0.0088%
Cc1nnn(C23C[C@@H]4C[C@@H](CC(C(=O)N5CCN(c6ccccc6)CC5)(C4)C2)C3)n1 -5.35%
Cc1onc(-c2ccccc2)c1C(=O)NC(=S)NNC(=O)c1ccco1 -9.63%
Fc1ccc(-c2cc(-c3cccs3)cc(-c3ccccc3)n2)cc1 -3.64%
CC1=Nc2ccccc2N=C(NC(=O)CSC(=S)N2CCCCC2)C1c1ccccc1 (stereo unspecified) -18.7%
N#Cc1cnn(-c2ccccc2)c1NC(=O)CN1CCN(c2ccccc2)CC1 -5.43%
O=C(O)/C(=C\c1cn(-c2ccccc2)nc1-c1cccnc1)NC(=O)c1ccccc1 -5.63%
CCOC(=O)c1nnn2c1nc(N1CCN(C)CC1)c1ccccc12 -4.29%
O=C(c1cc(Cl)cc(Cl)c1)N1CCN(c2cc(C(F)(F)F)nc3ccccc23)CC1 3.39%
O=C(COC(=O)c1cc(S(=O)(=O)N2CCOCC2)ccc1O)Nc1cc(S(=O)(=O)N2CCCC2)ccc1Cl -3.65%
CCOC(=O)N1CCc2c(sc3nc[nH]c(=O)c23)C1 -4.17%
C=CCNC(=S)Nc1c(C(=O)OC)[nH]c2cc(OC)ccc12 -6.58%
Cc1onc2c(=O)n(-c3ccccc3)nc(-c3ccccc3)c12 -2.11%
c1ccc(-c2ccc(C3=Nn4c(nnc4-c4cccs4)SC3)cc2)cc1 -9.62%
COc1ccc(CCNS(=O)(=O)c2cnc(Cl)c(Br)c2)cc1OC -11.1%
COc1ccc(C2=NOC(CNC(=O)c3ccccc3Br)C2)c(OC)c1 (stereo unspecified) -1.57%
CC1=C(O)C(=O)OC1c1c(Cl)cccc1Cl (stereo unspecified) 9.32%
Cc1ccc(F)cc1NC(=O)N1c2ccccc2NC(=O)CC1C (stereo unspecified) 5.13%
O=C(Nc1ccccc1)Nc1ccc(C(F)(F)F)cn1 7.38%
Cc1cc(C(=O)NNS(=O)(=O)c2ccc(C(C)(C)C)cc2)nn1C(C)(C)C -4.44%
CCc1cc2c3c(c1)C(C)CC(C)(C)N3C(=O)/C2=C1\SC(=O)NC1=O (stereo unspecified) -2.37%
C/C(=N\NC(=O)CCc1c(C)n[nH]c1C)c1ccc([N+](=O)[O-])cc1 -9.56%
COC(=O)Cc1[nH]c(=S)[nH]c1C(=O)OC -0.692%
COc1cc(OC)c(OC)cc1/C=C1\Oc2cc(OS(C)(=O)=O)ccc2C1=O -9.97%
CN(C)S(=O)(=O)Nc1cccc(Br)c1 0.119%
O=C(CCl)N(CCCNC(=O)C(F)(F)F)c1ccc([N+](=O)[O-])cc1 -3.69%
O=C(CSc1nnc2n1CCCN2)c1ccccc1 -13%

Potency, active:
CC(=O)Oc1cc2cccc(OC(C)=O)c(=O)c2c(OC(C)=O)c1OC(C)=O 1.12 µM
O=S(=O)(c1ccc2nc(-c3ccco3)c(-c3ccco3)nc2c1)N1CCOCC1 5.46 µM
c1ccc(-c2ccc(-c3ccccn3)nn2)nc1 2.82 µM
